Laboratory results reported in PubChem BioAssay AID938 (National Center for Advancing Translational Sciences (NCATS), 2007).
Out of some 73,000 compounds screened, about 1,800 (2.5%) were called active. Inconclusive results, whose numbers are uncertain, are shown with a selection of clear calls. Calls follow the shape of the dose curve; as a rule, active = well fitted activation curve with a large enough effect; inconclusive = small, poorly fitted or top-dose-only effect; inactive = no such curve, though single readings can be large or run the other way. Potencies of inconclusive entries are left out as doubtful fits.

assay: qHTS Assay for Agonists of the Thyroid Stimulating Hormone Receptor: Activators of Intracellular cAMP Concentrations in Parental HEK 293; conditions: parental HEK293 CNG cAMP sensor, membrane potential fluorescence; activation: at 57.1 µM (top of the series) unless noted; also: nearly all actives have a fitted effect of over 55% in size; as to activation: % of control where 0% means no effect
Method in brief: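 Parental HEK 293 cells stably expressing a modified CNG channel (no TSHR) report cAMP rise as membrane depolarization. Membrane potential dye with 100 uM RO 20-1724 was loaded for 60 min at room temperature, then compound added for 30 min; fluorescence read at 590 nm.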
Potency is read from the fitted curve at half-maximal effect; tags tell the direction and shape of the fitted curve.

SMILES	activation	Potency
O=c1[nH]c(=S)[nH]c2c1CN(CCCN1CCOCC1)CN2	inactive: 0.496% [at 11.4 µM]	
CCSc1nc2c(c(=O)n(C)c(=O)n2C)n1Cc1ccc(Cl)cc1		inconclusive [activator, partial curve, poor fit]
Cc1ccccc1Cc1c(C)nc2c(C(=O)N3CCN(Cc4ccc5c(c4)OCO5)CC3)cnn2c1C		active: 20 µM
Cc1ccc(-n2c(SCC(=O)Nc3nccs3)nc3c(c2=O)SCC3)cc1		inconclusive [activator, full curve]
Cc1c(C(=O)NCCCN2CCOCC2)sc2ncnc(N3CCN(c4ccccc4)CC3)c12		inconclusive [activator, single point]
Cc1ccc(-c2nnn(CCC(=O)N3CCCCC3C)n2)cc1 (stereo not given)		inconclusive [activator, single point]
CC1CCC2CC1C2(C)C (stereo not given)	inactive: 4.66%	
CCCOc1ccc(/C(O)=C2/C(=O)C(=O)N(c3cc(C)on3)C2c2ccc(C(=O)OC)cc2)cc1 (stereo not given)	inactive: 18.3%	
O=C(c1ccc(Br)cc1)C1CCc2occc2C1=O (stereo not given)		inconclusive [activator, single point]
c1ccc(-c2nnc(Cn3c4ccccc4c4nc5ccccc5nc43)o2)cc1		inconclusive [activator, full curve, poor fit]
COc1cc2c(C(=O)N3CCN(C4CCCCC4)CC3)cn(CC(C)C)c(=O)c2cc1OC		inconclusive [activator, single point]
N#CC(C(=O)OC1CCCCC1)c1nc2ccccc2nc1N1CCCCC1 (stereo not given)		inconclusive [activator, single point]
C/C(=C\CNc1ncnc2nc[nH]c12)CO		inconclusive [activator, single point]
COc1ccc(Cn2nnnc2C(c2ccc(N(C)C)cc2)N2CCC(C)CC2)cc1 (stereo not given)		inconclusive [activator, partial curve]
O=C(NCCc1cn2ccccc2n1)C1CCCCC1		inconclusive [activator, single point]
CCOC(=O)Cn1c(=O)oc2cc(S(=O)(=O)N3CCC(N4CCCCC4)CC3)ccc21		inconclusive [activator, full curve, poor fit]
COc1cccc(C2NC(C(=O)O)CCC2C)c1 (stereo not given)	inactive: -3.62% [at 11.4 µM]	
COC(=O)c1cccc(Nc2nc3ccccc3nc2C)c1		active: 31.6 µM
c1csc(Cc2nc(-c3ccc(-n4cccc4)cc3)no2)c1		inconclusive [activator, single point]
Cc1onc(-c2ccccc2)c1C(=O)N1CCOCC1		inconclusive [activator, single point]
Cc1c(C(=O)OCC2CCCO2)[nH]c2c1C(=O)CC(c1ccc(N(C)C)cc1)C2 (stereo not given)	inactive: 27.9%	
CC(C)CCN(C(=O)CNC(=O)c1ccco1)C(C(=O)NC1CCCCC1)c1ccco1 (stereo not given)	inactive: 27.5%	
CCC(C)(C)n1nnnc1C(C(C)C)N(CCCO)Cc1cc2cc(C)ccc2[nH]c1=O (stereo not given)		inconclusive [activator, partial curve]

SMILES	activation	Potency
CN1C(=O)CSc2ccc(NC(=O)NCCC3=CCCCC3)cc21		inconclusive [activator, partial curve]
CCN(CC)S(=O)(=O)c1ccc(NC(=O)CSc2nnc(-c3ccc(F)cc3)o2)cc1		inconclusive [activator, single point]
CCCCn1c2nc3ccccc3nc2c2c(=O)n(C(C)CC)cnc21 (stereo not given)		inconclusive [activator, single point]
Cc1ccc(C(=O)Nc2ccc3c(c2)OCO3)o1	inactive: -2.44%	
C=CCNc1nc2c(c(=O)n(C)c(=O)n2C)n1Cc1ccc(F)cc1		active: 25.1 µM
CCN(Cc1cc2ccccc2[nH]c1=O)S(=O)(=O)c1ccccc1	inactive: 0.894%	
COc1ccc(CCNC(=O)CCSc2nc(-c3ccco3)cc(C(F)(F)F)n2)cc1OC		inconclusive [activator, partial curve]
Cc1onc(-c2ccccc2Cl)c1C(=O)NCC1CCCO1 (stereo not given)		inconclusive [activator, single point]
O=C(Cn1c(C(=O)NCCCN2CCOCC2)cc2sccc21)c1ccccc1		inconclusive [activator, partial curve]
CC(=O)NCCNc1ccnc(-c2ccccc2C(F)(F)F)n1	inactive: 1.51%	
CCOc1ccccc1N1CCN(Cc2cccc(OC)c2O)CC1		inconclusive [activator, single point]
Cc1occc1-c1nnc(SCC(=O)c2ccc(F)cc2)o1		inconclusive [activator, partial curve]
COC(=O)C1(Cc2ccccc2)C2c3cc(C(=O)N4CCCC4)n(Cc4ccc(OC(F)(F)F)cc4)c3CC2CN1C(=O)c1ccccc1 (stereo not given)		active: 1.26 µM
FC(F)(F)c1ccccc1-c1nccc(-n2ccnc2)n1	inactive: 27%	
C=CCOc1ccccc1CNn1nnnc1N		inconclusive [activator, single point]
COc1ccc(OCc2nc(C#N)c(N3CCN(c4ccc(OC)cc4)CC3)o2)cc1		inconclusive [activator, full curve]
CCOc1cccc(-c2nnc3sc(COc4ccc(Cl)cc4)nn23)c1		active: 15.8 µM
CCCC(=O)Nc1ccc(N2CCN(C(=O)CCC)CC2)cc1	inactive: -7.52%	
O=C(Nc1ccccc1)OCC1CCCN2CCCCC12 (stereo not given)		inconclusive [activator, single point]
CCOC(=O)c1ccc(CC(=O)c2oc3cc(O)ccc3c2C)o1		inconclusive [activator, partial curve]
Cc1noc(C)c1COC(=O)CCCc1c[nH]c2ccccc12		inconclusive [activator, partial curve]
CC(C)C[C@@H](CC(=O)N[C@H](CC(=O)N[C@@H]1CCNC[C@H]1C(=O)N[C@H](CC(=O)N[C@@H](CCC(=O)O)CC(=O)O)Cc1ccccc1)C(C)C)NC(=O)[C@@H]1CNCC[C@H]1N		inconclusive [activator, partial curve, poor fit]
